Measurements as given in the RNAGym collection of RNA variant scans (doi:10.1093/nar/gkz1192).
The source gives no read counts; variants with many changes may rest on few reads.

B1: CPEB3 Ribozyme (parent)
chain: UAACAGGGGGCCACAGCAGAAGCGUUCACGUCGCAGCCCCUGUCAGAUUCUGGUGAAUCUGCGAAUUCUGCUGUAUAUCUC

Variants of: B1
Test: self-cleavage, relative activity (ratio to wild type); higher = more cleavage; in vitro, sequencing
Outline: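 Relative activity was defined as the cleaved/total read fraction for a variant divided by the same fraction for the unmutated ribozyme. CPEB3 self-cleaving ribozyme libraries were made by rounds of error-prone PCR, barcoded, and transcribed in vitro with T7 RNA polymerase for 5 hours at 37°C, and cleavage ran through transcription plus a 15 min DNase I step before EDTA. Illumina sequencing of template-switched reverse transcripts gave the reads, and DNA sequencing mapped the barcodes. Averages come from three batches, using variants with at least 5 reads.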

Row | Variant | self-cleavage
1 | UAACAGGGGGCCACAGCAGGUGCGUUCACGUCGCAGCCCCUGUCAGAUUCUGGUGAAUCUGCGAAAUCUGCUGUAUAUCUC [A20G A21U U66A] | 0.7
2 | UAACAGGGGGCCACAGCAGGAGCGUUCGCGUCGCAGCCCCUGUCAGAUUCUGAUGAAUCUGCGAAUUCUGCAGUAUACCUC [A20G A28G G53A U72A U78C] | 0.46
3 | UAACAGGGGGCCACAGCAGGAGCGUUCACGUCGCGGCCCCUGUCAGAUUCUGGUGAAUCUGCGAGUUCUGCUGUAUAUCUC [A20G A35G A65G] | 0.73
4 | UAACAGGGGGCCACAGCAGGAGCGUUCUCGUCGCAGCCCCCGUCAGAUUCUGGUGAAUCUGCGAACUCUGCCGUAUAUCUC [A20G A28U U41C U66C U72C] | 0.25
5 | UAACAGGGGGCCACAGCAGGAGCGUUCGCGUCGCUGCCCCUGUCAGAUUCUGGUGAAUCUGCGAAUUCCGCUGUAUAUCUC [A20G A28G A35U U69C] | 0.08
6 | UAACAGGGGGCCACAGCAGGGGCGUUCACGUCGCAGCCCCUGUCAGACUCUGGUGAAUCUGCGAAUUCUGCUGUAUAUCUC [A20G A21G U48C] | 0.28
7 | UAACAGGGGGCCACAGCAGGGGCGUCCACGUCGCAGCCCCUGUCUGAUUCUGGUGAAUCUGCGAAUUCUGCUGUAUAUCAC [A20G A21G U26C A45U U80A] | 0.06
8 | UAACAGGGGGCCACAGCAGGUGCGUUCACGUCGCAGCCCCUGUCAGACUCAGGUGAAUCUGCGAAUUCUGCUGUAUAUCUC [A20G A21U U48C U51A] | 0.27
9 | UAACAGGGGGCCACAGCAGGGGCGUUCACGUCGCAGCCCCUGUCAGAUUCUGGUGAAUCUGCGAAUUCCGCUGUAUAUCUC [A20G A21G U69C] | 0.26
10 | UAACAGGGGGCCACAGCAGGAGCGUUCGCGUCGCAGCCCCUGCCAGAUUCUGGUGAAUCUGCGAAUUCUGCUGUAUAUCUC [A20G A28G U43C] | 0.42
11 | UAACAGGGGGCCACAGCAGGAGCGUUCGCGUCGCAGCCCCUGUCAGAUUCUGGCGGACCUGCGAAUUCUGCUGUACACCUC [A20G A28G U54C A56G U58C U76C U78C] | 0.28
12 | UAACAGGGGGCCACAGCAGGGGCGUUCACGUCGCAGCCCCUGUCAGAUUCUGGUGAAACUGCGAAUUCUGGUGUAUAUCUC [A20G A21G U58A C71G] | 0.34
13 | UAACAGGGGGCCACAGCAGGAGCGUUCGCGUCGCAGCCCCUGUCAGAUUCAGGUGAAUCUGCGUAUCCUGCUGUAUAUCUC [A20G A28G U51A A64U U67C] | 0.11
14 | UAACAGGGGGCCACAGCAGGAGCGUUCACGUCGCGGCCCCUGUCCGAUUCUGGUGAAUCUGCGAAUUCUGCUGUAUAUCUC [A20G A35G A45C] | 0.61
15 | UAACAGGGGGCCACAGCAGGAGCGUUCACGUCGCGGCCCCUGUCAGAUUCUGGUGAAUCUGCGAAUUCUGCUGUUUAUCAC [A20G A35G A75U U80A] | 1.31
16 | UAACAGGGGGCCACAGCAGGAGCGUUCGCGUCGCAGCCCCUGACGGAUUCUGGUGAAUCUGCGAACUCUGCUGUAUAUCUC [A20G A28G U43A A45G U66C] | 0.3
17 | UAACAGGGGGCCACAGCAGGGGCGUUCACGUCGCAGCCCCUGUCAGAUUCUGGUGAAUCUGCGGAUUCUGCUGUAUAUCUC [A20G A21G A64G] | 0.42

Row | Variant | self-cleavage
18 | UAACAGGGGGCCACAGCAGGAGCGUUCUCGUCGCUGCCCCAGUCAGAUUCUGGUGAAUCUGCGAAUUCUGCUGUACAUCUC [A20G A28U A35U U41A U76C] | 0.1
19 | UAACAGGGGGCCACAGCAGGGGCGUCCACGACGCAGCCCCUGUCAGAUUCUGGUGAGUCUGCGAAUCCUGCUGUAUAUCUC [A20G A21G U26C U31A A57G U67C] | 0.22
20 | UAACAGGGGGCCACAGCAGGAGCGUUCUCGUCGCAGCCCCUGUCAGGUUCUGGUGAAUCUGCGAAUUCUGCUGUAUAUCUC [A20G A28U A47G] | 0.51
21 | UAACAGGGGGCCACAGCAGGAGCGUUCUCAUCGCAGCCCCUGUCAGAUUCCGGUGAAUCUGCGAAUUCUGCUGUAUUUCUC [A20G A28U G30A U51C A77U] | 0.16
22 | UAACAGGGGGCCACAGCAGGGGCGUUCACGUCGCAGCCCCUGUCGGAUUUUGGUGAAUCUGCGAAUUCUGCAGUAUAUCUC [A20G A21G A45G C50U U72A] | 0.12
23 | UAACAGGGGGCCACAGCAGGGGCGUACACGUCGCAGCCCCUGUCGGAUUCAGGUGAAUCUGCGAAUUCUGCUGUAUAUCUC [A20G A21G U26A A45G U51A] | 0.23
24 | UAACAGGGGGCCACAGCAGGAGCGUUCUCGUCGCAGCCCCUGACAGUUUCUGGUGAAUCCGCGUAUUCUGCUGUAUAUCUC [A20G A28U U43A A47U U60C A64U] | 0.12
25 | UAACAGGGGGCCACAGCAGGAGCGUUCACGUCGCGGCCACUGCCAGAUCCUGGUGAAUCUGCGAAUUCUGCUGUAUAUCCC [A20G A35G C39A U43C U49C U80C] | 0.29
26 | UAACAGGGGGCCACAGCAGGAGCGUUCUCGCCGCGGCCCCUGUCAGAUUCUGGUGAAUCUGCGAAUUCUGCAGUAUAUCUC [A20G A28U U31C A35G U72A] | 0.33
27 | UAACAGGGGGCCACAGCAGGAGCGUUCGCGUCGCAGCCCCUGUCAGAUUCUGGUGAACCUGCGAAAUCUGCUGUAUGUCUC [A20G A28G U58C U66A A77G] | 0.09
28 | UAACAGGGGGCCACAGCAGGAGCGUUCUCGUCGCAGCCCCUGUCAGAUUCUGGUGAAUCCGCGAAUUCUGCUGUAUAUCCC [A20G A28U U60C U80C] | 0.23
29 | UAACAGGGGGCCACAGCAGGAGCGUUCUCGUCGCAGCCCCUGUCAGGUUCUGGUGAAUCUGCGAACUCUGCCGUAUAUCUC [A20G A28U A47G U66C U72C] | 0.18
30 | UAACAGGGGGCCACAGCAGGUGCGUUCACGUCGCAGCCCCUGCCAGAUUCUGGUGAAUCUGCGAAUUCUGCUGUAUAUCUC [A20G A21U U43C] | 0.08
31 | UAACAGGGGGCCACAGCAGGGGCGUUCACGUCGCAGCCUCUGUCAGAUUAUGGUGAAUCUGCGAAUUCUGCUGUAUAUCUC [A20G A21G C39U C50A] | 0.52
32 | UAACAGGGGGCCACAGCAGGUGCGUUCACGUCGCAGCCCCUGUCAGAUUCGGGUGAAUCUGCGAAUUCUGCUGCAUAUCUC [A20G A21U U51G U74C] | 0.22
33 | UAACAGGGGGCCACAGCAGGAGCGUUCGCGUCGCAGCCCCUGUCAGAUUCUGGUGAAUCUGCGAAUUCUGCUGUAUACCUC [A20G A28G U78C] | 0.25
34 | UAACAGGGGGCCACAGCAGGAGCGUUCGCGUCGCUGCCCCUUACAGAUUCUGGUGAACCUGCGAAUUCUGCUGUAUAUCUC [A20G A28G A35U G42U U43A U58C] | 0.05
